Measurements as given in article PMC4336329 (PLoS ONE, 2015).
Hit rate of the full screen: of about 310,000 compounds, about 14,000 (4.5%) showed an effect of 50% or more. Effects have a minus sign here. The list shows a part of the results.

Target: human ether-à-go-go-related gene (hERG) potassium channel (human, UniProt Q12809)
Test: primary screen, population patch clamp on CHO cells stably expressing hERG
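Also: peak tail current of the secondary pulse compared with the same well before compound.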

human ether-à-go-go-related gene (hERG) potassium channel, sequence (Q12809 whole entry, looked up): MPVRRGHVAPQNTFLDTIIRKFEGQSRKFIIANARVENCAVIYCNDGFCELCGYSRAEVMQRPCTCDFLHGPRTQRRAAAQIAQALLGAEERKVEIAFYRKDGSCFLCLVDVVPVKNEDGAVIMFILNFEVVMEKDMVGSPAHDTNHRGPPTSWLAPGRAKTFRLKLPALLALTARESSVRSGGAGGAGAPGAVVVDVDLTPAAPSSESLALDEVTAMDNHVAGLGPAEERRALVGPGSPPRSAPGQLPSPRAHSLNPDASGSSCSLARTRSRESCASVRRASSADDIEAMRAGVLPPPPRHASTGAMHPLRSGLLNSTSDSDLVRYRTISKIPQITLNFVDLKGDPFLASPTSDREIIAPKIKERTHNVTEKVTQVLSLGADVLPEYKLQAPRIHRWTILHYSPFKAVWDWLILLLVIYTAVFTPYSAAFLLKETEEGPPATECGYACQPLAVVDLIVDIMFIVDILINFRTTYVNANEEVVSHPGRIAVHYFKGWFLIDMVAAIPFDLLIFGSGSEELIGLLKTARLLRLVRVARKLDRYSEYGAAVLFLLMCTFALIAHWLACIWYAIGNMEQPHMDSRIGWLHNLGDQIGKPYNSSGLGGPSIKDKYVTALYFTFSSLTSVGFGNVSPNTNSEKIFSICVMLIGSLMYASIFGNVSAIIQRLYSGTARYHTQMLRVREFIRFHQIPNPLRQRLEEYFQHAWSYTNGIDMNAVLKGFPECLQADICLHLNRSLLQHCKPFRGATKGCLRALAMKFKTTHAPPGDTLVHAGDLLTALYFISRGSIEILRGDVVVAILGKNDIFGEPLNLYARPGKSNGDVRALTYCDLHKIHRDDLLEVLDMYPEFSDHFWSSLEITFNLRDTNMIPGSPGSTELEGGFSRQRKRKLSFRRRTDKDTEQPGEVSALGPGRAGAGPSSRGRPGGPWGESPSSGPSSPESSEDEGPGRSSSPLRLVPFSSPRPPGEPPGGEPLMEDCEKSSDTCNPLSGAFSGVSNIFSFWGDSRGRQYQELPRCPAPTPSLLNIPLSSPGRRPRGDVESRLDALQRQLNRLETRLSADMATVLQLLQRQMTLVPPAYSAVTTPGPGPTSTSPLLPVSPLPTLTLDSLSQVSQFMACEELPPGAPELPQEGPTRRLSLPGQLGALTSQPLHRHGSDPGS

Row | Structure (SMILES) | hERG current change (%, negative = inhibition) at 10uM [%]
1 | COc1ccc(NC(=O)Cn2cc(S(=O)(=O)Cc3ccccc3)c3ccccc32)c(OC)c1 | 3.12
2 | COc1ccccc1C(=O)NC(=O)COC(=O)Cc1n[nH]c(=O)c2ccccc12 | 1.52
3 | COc1ccc(N2CCN(C(=O)C3COc4ccccc4O3)CC2)cc1 (stereo not shown) | -22
4 | CC(=O)Nc1ccc(NC(=O)C(C)OC(=O)COc2ccc(Nc3ccccc3)cc2)cc1 (stereo not shown) | 14.1
5 | O=C(COC(=O)c1ccccc1Br)Nc1cc(S(=O)(=O)N2CCOCC2)ccc1N1CCCC1 | 30.1
6 | CC(C)=C1C2C=CC1C(C(=O)Nc1cc(C)ccc1C)C2C(=O)O (stereo not shown) | 12.3
7 | O=C(Nc1ccc(Cl)cc1)NN1CC(=O)N(c2cccc(C(F)(F)F)c2)CC1=O | 19.6
8 | NS(=O)(=O)c1ccc(N2N=C(c3ccccc3)CC2c2ccc(F)cc2)cc1 (stereo not shown) | 4.94
9 | O=C(CN1CCN(c2ccc(O)cc2)CC1)Nc1cc(S(=O)(=O)N2CCCC2)ccc1Cl | -30.5
10 | COc1ccc(OCC(=O)N/N=C2\CCc3ccccc32)cc1 | -23.9
11 | CCCCc1nnc(NC(=O)C2CC(=O)N(Cc3ccccc3)C2)s1 (stereo not shown) | -27.4
12 | Cc1cc(C)n(CC2CC(=O)N(c3ccc(Cl)cc3)C2=O)n1 (stereo not shown) | 13.5
13 | O=C(CCCc1ccccc1)NCc1cn2ccsc2n1 | -12.1
14 | Cc1ccc(/C=N/NC(=O)Cn2nnc(N)n2)o1 | 1.68
15 | CCc1cccc(CC)c1NC(=O)c1cccc(N)c1 | -16.5
16 | Nc1ccc(N2CCCCC2)c(S(=O)(=O)Nc2ccc(Cl)cc2)c1 | -10.3
17 | Cc1cccc(NC(=O)c2sc(-c3ccccc3)nc2-c2ccc([N+](=O)[O-])cc2)c1 | 12.6
18 | N#Cc1c(NC(=O)CSc2nnc(-c3ccncc3)n2CC2CCCO2)sc2c1CCCC2 (stereo not shown) | -40.7
19 | Cc1cc(C)cc(N(C(=O)C2CCCC2)C2C=CS(=O)(=O)C2)c1 (stereo not shown) | -22.9
20 | CC(=O)NC1C(=O)SC1(C)C (stereo not shown) | 21.5
21 | COc1cc(OC)cc(C(=O)NCC(=O)N2CCN(c3ccc(O)cc3)CC2)c1 | -4.58
22 | O=c1[nH]c2ccccc2n2c(=S)[nH]nc12 | 32.5

Row | Structure (SMILES) | hERG current change (%, negative = inhibition) at 10uM [%]
23 | O=C(NCC1CCCO1)c1cccc(S(=O)(=O)N2CCOCC2)c1 (stereo not shown) | 14.1
24 | CC(Sc1ccc(Cl)cc1)C(=O)Nc1ccc2c(c1)OCO2 (stereo not shown) | -8.04
25 | Cc1cccc(NS(=O)(=O)c2cc3c(cc2C)n(C)c(=O)c(=O)n3C)c1 | -20.9
26 | COc1ccc(C(=O)NCCC2=CCCCC2)cc1 | -9.79
27 | COc1ccc(-c2csc(N3CCC(c4ccccc4)CC3)n2)cc1 | 23.2
28 | CCC(=O)Nc1cccc(NC(=O)c2ccc(Br)cc2)c1 | 12
29 | COc1ccc(S(=O)(=O)N2CCCCC2)cc1Br | -12.3
30 | CN1/C(=C\C(=O)c2ccco2)c2ccccc2CC1(C)C | -17.1
31 | C/C(=N/OC(=O)c1c(-c2ccccc2Cl)noc1C)c1cnccn1 | -7.04
32 | CCc1ccc(OCCCC(=O)Nc2ccc(N3CCCCC3)cc2)cc1 | 10.1
33 | COc1ccc(N(C(C)C(=O)N/N=C/c2cc(Br)c(C)o2)S(C)(=O)=O)cc1 (stereo not shown) | -54
34 | CCc1nnc(NC(=O)CSc2nc3ccc(OC)cc3[nH]2)s1 | -3.22
35 | Cc1ccc(C(=O)CSc2nnc3ccccn23)c(C)c1 | -5.23
36 | O=C(c1cc2ccccc2o1)N1CCN=C1SCc1cccc(F)c1 | -7.82
37 | CC1CCCCN1S(=O)(=O)c1ccc(N(C(=O)c2cnccn2)C(C(=O)NC2CCCC2)c2cccs2)cc1 (stereo not shown) | -20.5
38 | CC1(C)C(=O)OC(c2cccn2-c2ccc([N+](=O)[O-])cc2)C(C)(C)C1=O (stereo not shown) | -1.77
39 | CCCC/C(C)=N/NC(=O)c1cn(-c2ccccc2)nc1-c1ccccc1 | 24.6
40 | O=C(NN1CCOCC1)NC12CC3CC(CC(C3)C1)C2 | 1.76
41 | CCOC(=O)[C@H]1[C@H]2COc3ccccc3[C@@H]2N2C(=O)c3c(C)cc(C)cc3NC(=O)[C@@]12C | -22.5
42 | O=C(Nc1ccccc1)C1CCCN1C(=O)Nc1ccccc1[N+](=O)[O-] (stereo not shown) | 3.16
43 | COC(=O)c1ccccc1NC(=O)COc1ccc2c(c1)OCO2 | 3.32
44 | O=C(COc1cc2oc(=O)c3c(c2cc1Cl)CCC3)NCCCN1CCCC1=O | -3.1

Row | Structure (SMILES) | hERG current change (%, negative = inhibition) at 10uM [%]
45 | COCC(=O)Nc1c(C(=O)Nc2ccc3c(c2)OCCO3)oc2ccccc12 | -1.54
46 | Cc1ccc(NC(=O)CN(C)S(=O)(=O)c2ccc3c(c2)n(C)c(=O)c(=O)n3C)cc1 | 13.9
47 | O=C(NC1CCCCC1)c1sc(N2CCOCC2)nc1-c1ccccc1 | -25.2
48 | CS(=O)(=O)N(CC(=O)O)c1cc(C(F)(F)F)ccc1Cl | -16.9
49 | C#CCNc1ccncc1S(=O)(=O)NC(=O)NC(C)C.O=[N+]([O-])O | -1.14
50 | CCSc1ccc(/C(N)=N/OC(=O)c2cccs2)cn1 | 13.1
51 | O=C(c1ccc(Br)s1)N1CCc2ccccc2C1 | -40.9
52 | Cc1c(NC(=O)C2CCN(S(=O)(=O)c3ccc(Cl)cc3)CC2)c(=O)n(-c2ccccc2)n1C | 21
53 | CC1(C)CC(=O)C=C(Nc2ccccn2)C1 | 8.92
54 | CCc1nnc(NS(=O)(=O)c2ccc(N/C=C\C(=O)c3cccc(OC)c3)cc2)s1 | 21.3
55 | Cc1cc(Oc2ccc(-c3nnc(-c4ccccc4)o3)cc2[N+](=O)[O-])ccc1Cl | 19
56 | CCOC(=O)Nc1ccc(S(=O)(=O)Nn2cnnc2)cc1 | 0.873
57 | Cl.Fc1ccc(Nc2ncnc3sc4c(c23)CCC4)cc1 | -21.6
58 | FC(F)(F)c1cc(-c2ccccn2)nc2cc(-c3ccccc3)nn12 | 18.6
59 | Cc1ccc(C(=O)OCc2nnc(-c3ccccc3)o2)cc1S(=O)(=O)N1CCOCC1 | -26.7
60 | O=C1CC(N2CCN(Cc3ccccc3)CC2)C(=O)N1c1ccccc1 (stereo not shown) | 2.8
61 | CCOC(=O)[C@H]1[C@H]2COc3cc(OC)ccc3[C@@H]2N2C(=O)CN(Cc3ccccc3)C(=O)[C@@]12C | -8.34
62 | COc1ccc(C(CNC(=O)c2cc3ccccc3cc2O)N2CCOCC2)cc1 (stereo not shown) | -3.36
63 | O=C(CCC(=O)c1ccc(F)cc1)NCc1ccccc1C(F)(F)F | 19.1
64 | O=C(Nc1cnc2sccn2c1=O)c1ccccc1Cl | 4.42
65 | CC(C)(C)C(=O)NNC(=O)C1CC1(c1ccccc1)c1ccccc1 (stereo not shown) | 13.1
66 | CCOc1ccc(-c2c(C(=O)N/N=C/c3sccc3C)nnn2-c2nonc2N)cc1 | 19.7

Row | Structure (SMILES) | hERG current change (%, negative = inhibition) at 10uM [%]
67 | Cc1cn2nc(N)c3ccccc3c2n1 | -9.19
68 | Cc1ccc(COc2ccsc2C(=O)NN)cc1 | 1.72
69 | CC(=O)c1ccc(NC(=O)Nc2ccncc2)cc1 | 15.3
70 | CC1(C(=O)NC2CCCCC2)CCC(=O)N1Cc1cccnc1 (stereo not shown) | 11.6
71 | COc1ccc(-c2nc(N)n[nH]2)cc1 | 19.8
72 | COC(=O)c1ccc(NC(=O)COc2ccc(S(=O)(=O)NC(C)(C)C)cc2)cc1 | 24.9
73 | COCCCNC(=O)/C(C#N)=C/c1c(N2CCN(C)CC2)nc2c(C)cccn2c1=O | 14.9
74 | Cc1ccn2c(c1)nc(=O)c1cc(S(=O)(=O)N3CCC(C)CC3)ccc12 | -36.3
75 | O=C(COc1ccc(Br)cc1Cl)N1CCN(c2ncccn2)CC1 | -49.7
76 | CSc1ncc(C(=O)O)c(C)n1 | 3.36
77 | CCOC(=O)C(Oc1ccc2c(-c3ccccc3)cc(=O)oc2c1C)c1ccccc1 (stereo not shown) | 7.58
78 | Cc1cc(NC(=O)c2c(Cl)c(C)nn2C)no1 | 11.1
79 | CC(=O)NCCNC(=O)CNC(=O)c1ccc(Cl)cc1 | 9
80 | CC1CN(C(=O)c2ccc(CNS(=O)(=O)c3cccc(C(F)(F)F)c3)cc2)CC(C)O1 (stereo not shown) | 9.72
81 | COc1cccc(CNC(=O)c2ccccc2-c2ccccc2C(=O)O)c1 | 18
82 | COC(=O)c1ccccc1OCCOCCOc1cccc2ccc(C)nc12 | -48.5
83 | COc1ccc(NC(=O)CSc2nnc(NC(=O)c3ccco3)s2)cc1 | 12.2
84 | O=C1CCN(Cc2ccc([N+](=O)[O-])cc2)CCN1[C@H](CO)c1ccccc1 | -37.4
85 | CC(=O)Nc1ccc(S(=O)(=O)N2CC3(C)CC2CC(C)(C)C3)cc1 (stereo not shown) | -1.79
86 | COC(=O)c1ccc2c(=O)n(Cc3ccco3)c(SCC(=O)Nc3ccccc3Cl)nc2c1 | -4.06
87 | CCOc1c(CNCc2ccc(C(=O)O)cc2)cccc1OC.Cl | 2.85
88 | CCOC(=O)CN1C(=O)NC2NC(=O)NC21 (stereo not shown) | 15.5
